# Whole data set: some 33,000 sequences, median “E-score (-0.5 to 0.5)” near -0.054, cut for the highest 2% near 0.39. The list shows a part of the results.
# Biological target: Ylr278c (UniProt Q05854)
# Test: PBM E-score (8-mer binding enrichment) (E-score (-0.5 to 0.5)); higher = stronger / more preferred TF binding; most listed sequences are background and not binding sites
# Conditions: protein concentration: 200 nM; construct: GST-DNA-binding domain
# Method in brief: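 Each ungapped eight-base word and its reverse complement, pooled, received an E-score from the Universal PBM Analysis Suite. Underlying scans, normalised with masliner, recorded fluorescent anti-GST bound to GST-tagged yeast transcription factors. These were applied at about 100-200 nM to universal all-10-mer Agilent arrays double-stranded by primer extension.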
row,Sequence,PBM E-score
1,AAAGGGCC,-0.198
2,CTGAGAAC,-0.152
3,CAAATGTC,0.0103
4,TCATTTCA,0.0142
5,ATTGGCGC,-0.0108
6,CGGAGCAA,0.456
7,CTCTTACA,-0.261
8,CGGATCTA,0.32
9,ACACGCCA,-0.0767
10,ACTCCCGC,0.26
11,ATGTAAAC,0.0031
12,GTTCGCCA,-0.0345
13,GCCCGCAA,0.149
14,AAAGGACT,-0.0605
15,ACAGATAT,-0.119
16,AAACTAAG,-0.138
17,ACGTTTCG,-0.029
18,CATCAAAA,-0.0377
19,GAATAGGA,0.0304
20,ATCATCAT,-0.156
21,TACGAAAA,-0.0945
22,ACTAAAAC,-0.0575
23,AGCTGTCC,-0.212
24,AGAGTTTG,-0.127
25,TACGCCTA,-0.215

row,Sequence,PBM E-score
1,GGGTGTCA,-0.0267
2,CCCCGACC,0.28
3,CGGCAACA,0.235
4,AATAATGC,0.176
5,CGTCACCA,-0.174
6,AAACCTGC,-0.114
7,TAGAGCGA,-0.168
8,TAACGCCA,-0.143
9,TGATTACA,-0.145
10,AGCTACTG,0.016
11,ATGCCTAG,-0.196
12,CAACCTCC,0.272
13,AGTATCCA,-0.108
14,ATCAAGAA,-0.112
15,AAGATGAA,-0.097
16,ACCCCTAT,-0.0191
17,GTCAACGA,-0.222
18,CGACCTGC,0.098
19,CAGTGTGA,-0.125
20,CGATGTGC,0.128
21,GATGGCCA,-0.102
22,ACTCCCAC,-0.035
23,GTGCGTTA,0.0296
24,TGATACAA,-0.0733
25,ACCATTCT,-0.091

row,Sequence,PBM E-score
1,CACCCTGA,-0.19
2,GACAGGAA,0.0396
3,TAACTACA,-0.0834
4,CAAAACAC,0.0478
5,CACCCTCC,0.178
6,CGATCCGA,0.364
7,CTGCGCAA,0.185
8,CTGTATGA,-0.016
9,ACGTAGAG,-0.216
10,AACGAGCT,-0.129
11,AAACCTTC,-0.0365
12,AGTGGAAG,-0.0517
13,ATGAACTG,0.0679
14,CCCGACTC,0.194
15,GATTGTTA,-0.0198
16,CCAGTAGC,0.181
17,CCTCAGCG,0.0654
18,AGTGCAGA,-0.0916
19,AACAAGTT,-0.0236
20,ACTCCTCA,-0.21
21,AGGTCGTA,-0.221
22,AAAACCGC,0.122
23,AGTACAGC,-0.0594
24,AAACTCCA,0.176
25,ATACAATC,-0.0309

row,Sequence,PBM E-score
1,ACGACTAG,-0.256
2,ACGGGGCG,0.208
3,CACGACGC,0.0518
4,CATGGCGC,0.0912
5,CGCCCGCC,0.319
6,AGATTTGC,0.0503
7,ATCCATTA,-0.0934
8,CGCATCCG,0.308
9,AACGCATG,-0.0833
10,ATACATCG,0.0697
11,ATCGCCAA,-0.201
12,ACCATGCG,-0.0305
13,GGGTCGCA,0.139
14,CATTGGTA,0.1
15,ATGTCCTC,-0.196
16,CGCCTATC,0.0398
17,GCTCTTGA,-0.177
18,AGTCATGG,-0.117
19,ACTACCAG,-0.0285
20,CGTGTGGC,-0.151
21,CTCACACC,-0.0798
22,AATAAAGT,-0.0321
23,AGAGAATG,-0.179
24,TCTATCAA,-0.202
25,GCTATGCC,-0.025

row,Sequence,PBM E-score
1,CCCTGCTA,-0.13
2,GGCGATGA,0.0488
3,AGAGCTCT,-0.215
4,AGCCCGAG,0.0363
5,CGGCCAGC,0.159
6,ACCAGCAC,-0.215
7,CCAAGCCG,0.0631
8,CCTCGAAA,-0.102
9,AAGGAGTA,-0.0326
10,ATCGTCTA,-0.19
11,CGACGTGC,0.0957
12,CGAACTTA,0.0907
13,AATTGTCG,0.172
14,TATGGCCA,-0.0164
15,AGTCGACA,-0.135
16,CTTAACTC,0.00586
17,AAGGTATA,-0.161
18,ATCCGCGA,0.253
19,TAAGCGCA,-0.168
20,ACCAATGG,-0.00662
21,CACCCACC,0.0612
22,CCCCAGAA,0.00338
23,TAAGTTGA,-0.17
24,GGCATACA,-0.0374
25,CCCAGAGC,-0.243

row,Sequence,PBM E-score
1,ACAGTCAC,-0.241
2,ACTTCCCT,-0.0905
3,CAGGCGTA,-0.323
4,GAGTGCCC,0.0464
5,GGTTCACA,-0.105
6,CGTAGCAG,-0.0985
7,GGACTTCA,0.198
8,ACTTGGCA,-0.23
9,CGACGCAC,0.0113
10,GATGGACC,0.0223
11,AGCCTATG,-0.255
12,GTTCTCAA,-0.162
13,ACTACAAG,-0.0753
14,ACTTCGCG,0.196
15,GACATGAA,-0.033
16,CGCTTTCA,0.0276
17,CGCGCACG,0.196
18,CTACAAGA,-0.00619
19,CGTCTGTC,-0.00958
20,AATACTCG,-0.0284
21,CAGCTCCG,0.426
22,CTCTAACC,-0.0745
23,AACTATAA,0.00114
24,TAAGCCTA,-0.0455
25,CTTCTAAC,-0.156

row,Sequence,PBM E-score
1,AAGCGTGC,-0.0134
2,TCTTTGCA,-0.141
3,CATGTAGC,-0.182
4,CCGCAGAA,0.261
5,ATGACCCG,-0.0571
6,GCATACGA,-0.236
7,CGTTTTCC,0.0748
8,CTCAGGTC,-0.0518
9,GCCACCAC,-0.288
10,CTCAACCC,-0.0959
11,CACTTGCC,0.0403
12,CATGACCC,-0.075
13,ATTTATGG,-0.0865
14,CTGCCTAA,-0.235
15,GGAACAGA,0.096
16,CGATGTTA,-0.0237
17,CCTGTGCG,0.0174
18,CAACTTAA,-0.214
19,AGTAGAAA,0.0667
20,CACTTACC,0.119
21,CGGGGAAA,0.365
22,TGCCATAA,-0.0325
23,GAAGTAAC,0.0354
24,TACCCTAA,-0.157
25,GTGCAACA,-0.184

row,Sequence,PBM E-score
1,GTGTGATA,-0.0667
2,AGGTTTAT,0.157
3,AGGGTACC,-0.21
4,GCGACATA,-0.0837
5,AATTCACC,0.181
6,GATATCCC,0.288
7,AAGATGGC,0.0523
8,ATGATCGA,-0.193
9,ACGGATCC,0.275
10,CAATGTGC,-0.0161
11,GATATGCA,0.0751
12,GACGTTAC,-0.181
13,GTCTGGAA,-0.223
14,AAGGAGCG,-0.106
15,GCATAGTA,-0.036
16,AAGACGTG,0.0106
17,AGATTGAT,-0.0378
18,GCCGTCTA,0.0771
19,CATGTTGA,-0.0612
20,CCATGCTA,-0.227
21,ATCTGTCG,0.164
22,ATCCCTTA,-0.0352
23,TCTTCAAA,-0.152
24,CACACCTG,-0.196
25,ATAATGAG,-0.114

row,Sequence,PBM E-score
1,GCCTACCA,-0.123
2,AGGCACGG,0.104
3,CTCAGTTC,-0.288
4,AAACTGAT,-0.0999
5,AAGTCTTA,-0.159
6,GTAACAAC,-0.201
7,GGCGTGCA,0.014
8,GCTAACAA,-0.138
9,GTGCATGA,-0.211
10,ACCATAGA,0.00619
11,CGTCGATC,0.0378
12,CTCATCGC,-0.042
13,CTAACAAA,-0.211
14,TACACACA,-0.233
15,AACCAGTA,-0.0509
16,GAACCGCC,0.16
17,TCCCCGGA,0.435
18,CTAGTTTC,0.0814
19,CGTTCGCC,0.145
20,CAGGGGAA,-0.146
21,CGTAAGGC,-0.161
22,ACTTGTAG,-0.159
23,GACTTAGC,-0.0965
24,ACCTCGGC,0.332
25,ACAGTGCC,0.0507

row,Sequence,PBM E-score
1,TCCTCGAA,-0.115
2,GAAAATTC,0.191
3,ATCCGCAC,0.299
4,CACAATCA,0.0681
5,GGATACAC,0.103
6,AGACGCAT,-0.109
7,CCATAAAG,-0.171
8,ATCTTGCC,-0.0208
9,ACTGACTG,-0.255
10,TAATACTA,-0.0508
11,AACGGACA,0.321
12,CCTAATGC,-0.295
13,ACGGAGCC,0.385
14,AGGCGTAC,-0.209
15,CTGATAAC,-0.0994
16,ATCTAAAA,-0.135
17,AATTTTTC,0.113
18,CGCACTCC,0.215
19,ACCCGAAT,0.129
20,ATTATGCC,0.115
21,CAGACATG,-0.153
22,AGCTACCC,-0.243
23,CGACCGTC,-0.0706
24,ACAACCGA,0.0595
25,AATTCACT,-0.0951

row,Sequence,PBM E-score
1,AGCGCGCG,0.149
2,AAACCTCG,0.0262
3,ACAGTCCT,-0.337
4,ATCCTCAC,-0.0428
5,ATTGAAGA,-0.253
6,AGTGAGAA,0.0358
7,GCTCGCTA,-0.171
8,AGTACCAT,-0.154
9,ATAGGAGG,-0.0693
10,TGGAATAA,-0.0106
11,CGGTATCC,0.234
12,ACCACACT,-0.0239
13,TTACCCAA,-0.275
14,CTGAGGGC,-0.251
15,ATAAATAT,0.106
16,TAGTGCGA,-0.086
17,CCCTCGCG,0.112
18,TAGCTTGA,-0.14
19,GACGAAGA,0.0107
20,ATAATTGA,0.00187
21,CGTGTAAC,-0.086
22,ATCCCTCC,0.0691
23,TCGCACCA,-0.0357
24,GAGATTAC,0.112
25,CGCACGGA,0.324

row,Sequence,PBM E-score
1,CGGTCGCC,0.174
2,CTACACCC,-0.144
3,GCGGCCAC,0.0274
4,TATCCAGA,-0.101
5,CCGGGCCG,0.369
6,AACAGAAC,-0.155
7,CACCTTAC,-0.154
8,AGGCTCTG,-0.409
9,TAGAAGGA,-0.137
10,ACACATGA,-0.296
11,ATAGCGTG,-0.16
12,ATTGATTC,0.0803
13,AAATGGTG,-0.0138
14,TCAACTGA,-0.133
15,AGGATAGC,0.00534
16,ACCGTCTG,-0.0873
17,ATAGGTGC,0.00227
18,TCGTAGAA,-0.171
19,AGGCATAG,-0.15
20,CATTACAG,-0.191
21,CCCCGGCA,0.318
22,CGAGATAA,0.0471
23,CGCCATCA,-0.0985
24,GGGGTGTA,-0.09
25,CGGGTTAA,0.297

row,Sequence,PBM E-score
1,AGCACCTA,-0.0928
2,CATGACGG,0.0722
3,ACTGTATC,-0.13
4,AACGCACC,-0.0199
5,AAAAGGGG,-0.103
6,GGAAATAA,0.19
7,ATCTTCGC,0.0659
8,ATACAGTC,-0.18
9,ATGGAATG,0.00386
10,ACGGCAAC,0.00989
11,GATTATGC,0.149
12,GATATAAA,-0.176
13,AAGAACCT,-0.157
14,CCCGAGCG,0.292
15,CGTTGAGA,-0.133
16,ACAACTTG,-0.18
17,AGGCTTTC,-0.125
18,CCTAATGA,-0.2
19,ACTATTGG,-0.112
20,CTATGTCA,-0.183
21,ACACCACA,0.0174
22,ACCCTTGC,-0.118
23,GTAATTAA,-0.0118
24,GGTATCTA,-0.0263
25,CTAACGTA,-0.1

row,Sequence,PBM E-score
1,AGAGTGAC,-0.192
2,ACGCTCTC,0.0344
3,TCATATGA,0.0312
4,AAGCAGCC,-0.118
5,GGAAACGA,-0.0536
6,AATGCCAT,0.0253
7,AACCGGTT,0.284
8,TCCGCCGA,0.437
9,AGAATTAA,-0.114
10,CAGGTCAG,-0.0413
11,GCAGGTCA,-0.134
12,AACCGGGT,0.244
13,ACACAGAA,-0.0876
14,AGAGGGAA,-0.257
15,CCGCAACC,0.141
16,AATCGTTG,-0.0632
17,CGGCAGAG,-0.0128
18,AAGTCATG,-0.0146
19,CACTGAGA,-0.221

# From the supplement of paper PMC3334620
